Data reported in US11279689B2, “1-(3-(6-(3-hydroxynaphthalen-1-yl)benzofuran-2-yl)azetidin-1 yl)prop-2-en-1-one derivatives and similar compounds as KRAS G12C modulators for treating cancer” (Araxes Pharma LLC, priority 2017, dated 2022).
The name of at least one read-out is uncertain.

Each compound was assayed against T1, KRAS G12C 1-169, his-tagged protein, GDP-loaded (Homo sapiens, UniProt P01116, G12C) (assay: Biochemical assay: covalent binding (modification %) to KRAS G12C by mass spectrometry). Settings: 2 hour incubation period at 10 μM or 8 μM concentration.
T1 construct: KRAS G12C 1-169, his-tagged protein, GDP-loaded
In the case of `C=CC(=O)N1CC(c2cc3ccc(-c4cc(O)cc5ccccc45)cc3o2)C1` [Compound 1, 1-(3-(6-(3-hydroxynaphthalen-1-yl)benzofuran-2-yl)azetidin-1-yl)prop-2-en-1-one], the Binding % was “+++ (+++ indicates binding activity greater than 50%)”. For `C=CC(=O)N1CC(c2nc3ccc(-c4cc(O)cc5ccccc45)cc3[nH]2)C1` [Compound 2, 1-(3-(6-(3-hydroxynaphthalen-1-yl)-1H-benzo[d]imidazol-2-yl)azetidin-1-yl)prop-2-en-1-one], the Binding % was “+++ (+++ indicates binding activity greater than 50%)”. With `C=CC(=O)N1CC(c2cc3ccc(-c4c(C)ccc5[nH]ncc45)cc3o2)C1` [Compound 3, 1-(3-(6-(5-methyl-1H-indazol-4-yl)benzofuran-2-yl)azetidin-1-yl)prop-2-en-1-one] the Binding % was “+ (+ indicates binding activity up to 10%)”. In the case of `C=CC(=O)N1CC(c2nc3ccc(-c4c(C)ccc5[nH]ncc45)cc3[nH]2)C1` [Compound 4, 1-(3-(6-(5-methyl-1H-indazol-4-yl)-1H-benzo[d]imidazol-2-yl)azetidin-1-yl)prop-2-en-1-one], the Binding % was “+ (+ indicates binding activity up to 10%)”. `C=CC(=O)N1CC(c2cc3ccc(-c4cc(O)cc5ccccc45)cc3[nH]2)C1` [Compound 5, 1-(3-(6-(3-hydroxynaphthalen-1-yl)-1H-indol-2-yl)azetidin-1-yl)prop-2-en-1-one] was tested, and the Binding % was “+++ (+++ indicates binding activity greater than 50%)”. For `C=CC(=O)N1CC(c2cc3cc(-c4cc(O)cc5ccccc45)ccc3o2)C1` [Compound 6, 1-(3-(5-(3-hydroxynaphthalen-1-yl)benzofuran-2-yl)azetidin-1-yl)prop-2-en-1-one], the Binding % was “+++ (+++ indicates binding activity greater than 50%)”. `C=CC(=O)N1CC(c2cc3cc(-c4c(C)ccc5[nH]ncc45)ccc3o2)C1` [Compound 7, 1-(3-(5-(5-methyl-1H-indazol-4-yl)benzofuran-2-yl)azetidin-1-yl)prop-2-en-1-one] was tested, and the Binding % was “+ (+ indicates binding activity up to 10%)”. In the case of `CN(C)C/C=C/C(=O)N1CC(c2cc3ccc(-c4cc(O)cc5ccccc45)cc3o2)C1` [Compound 8, (E)-4-(dimethylamino)-1-(3-(6-(3-hydroxynaphthalen-1-yl)benzofuran-2-yl)azetidin-1-yl)but-2-en-1-one], the Binding % was “+++ (+++ indicates binding activity greater than 50%)”. With `C=CC(=O)N1CC(n2cnc3cc(-c4c(C)ccc5[nH]ncc45)ccc32)C1` [Compound 9, 1-(3-(5-(5-methyl-1H-indazol-4-yl)-1H-benzo[d]imidazol-1-yl)azetidin-1-yl)prop-2-en-1-one] the Binding % was “++ (++ indicates binding activity from 10 to 50%)”. With `C=CC(=O)N1CC(c2nc3cc(-c4cc(O)cc5ccccc45)ccc3o2)C1` [Compound 10, 1-(3-(5-(3-hydroxynaphthalen-1-yl)benzo[d]oxazol-2-yl)azetidin-1-yl)prop-2-en-1-one] the Binding % was “+++ (+++ indicates binding activity greater than 50%)”. For `C=CC(=O)N1CC(c2nc3cc(-c4c(C)ccc5[nH]ncc45)ccc3o2)C1` [Compound 11, 1-(3-(5-(5-methyl-1H-indazol-4-yl)benzo[d]oxazol-2-yl)azetidin-1-yl)prop-2-en-1-one], the Binding % was “+ (+ indicates binding activity up to 10%)”. With `C=CC(=O)N1CC(c2cc3cc(-c4cc(O)cc5ccccc45)ccc3[nH]2)C1` [Compound 12, 1-(3-(5-(3-hydroxynaphthalen-1-yl)-1H-indol-2-yl)azetidin-1-yl)prop-2-en-1-one] the Binding % was “+ (+ indicates binding activity up to 10%)”. In the case of `CC#CC(=O)N1CC(c2cc3ccc(-c4c(C)ccc5[nH]ncc45)cc3o2)C1` [Compound 13, 1-(3-(6-(5-methyl-1H-indazol-4-yl)benzofuran-2-yl)azetidin-1-yl)but-2-yn-1-one], the Binding % was “+ (+ indicates binding activity up to 10%)”. `Cc1ccc2[nH]ncc2c1-c1ccc2cc(C3CN(C(=O)/C=C/CN(C)C)C3)oc2c1` [Compound 14, (E)-4-(dimethylamino)-1-(3-(6-(5-methyl-1H-indazol-4-yl)benzofuran-2-yl)azetidin-1-yl)but-2-en-1-one] was tested, and the Binding % was “+ (+ indicates binding activity up to 10%)”. In the case of `C=CC(=O)N1CC(c2nc3ccc(-c4c(C)ccc5[nH]ncc45)cn3c2C(N)=O)C1` [Compound 15, 2-(1-acryloylazetidin-3-yl)-6-(5-methyl-1H-indazol-4-yl)imidazo[1,2-a]pyridine-3-carboxamide], the Binding % was “++ (++ indicates binding activity from 10 to 50%)”. For `C=CC(=O)N1CC(c2nc3ccc(-c4cc(O)cc5ccccc45)cc3n2CCCN(C)C)C1` [Compound 16, 1-(3-(1-(3-(dimethylamino)propyl)-6-(3-hydroxynaphthalen-1-yl)-1H-benzo[d]imidazol-2-yl)azetidin-1-yl)prop-2-en-1-one], the Binding % was “++ (++ indicates binding activity from 10 to 50%)”. For `C=CC(=O)N1CC(c2nc3ccc(-c4cc(O)cc5ccccc45)cn3c2C(N)=O)C1` [Compound 17, 2-(1-acryloylazetidin-3-yl)-6-(3-hydroxynaphthalen-1-yl)imidazo[1,2-a]pyridine-3-carboxamide], the Binding % was “++ (++ indicates binding activity from 10 to 50%)”. With `C=CC(=O)N1CC(c2nc3ccc(-c4c(C)ccc5[nH]ncc45)cc3n2CCCN(C)C)C1` [Compound 18, 1-(3-(1-(3-(dimethylamino)propyl)-6-(5-methyl-1H-indazol-4-yl)-1H-benzo[d]imidazol-2-yl)azetidin-1-yl)prop-2-en-1-one] the Binding % was “+ (+ indicates binding activity up to 10%)”. In the case of `C=CC(=O)N1CCC(c2cc3ccc(-c4cc(O)cc5ccccc45)cc3o2)C1` (stereo not shown) [Compound 19, 1-(3-(6-(3-hydroxynaphthalen-1-yl)benzofuran-2-yl)pyrrolidin-1-yl)prop-2-en-1-one], the Binding % was “+ (+ indicates binding activity up to 10%)”. `C=CC(=O)N1CC(n2cnc3cc(-c4cc(O)cc5ccccc45)ccc32)C1` [Compound 20, 1-(3-(5-(3-hydroxynaphthalen-1-yl)-1H-benzo[d]imidazol-1-yl)azetidin-1-yl)prop-2-en-1-one] was tested, and the Binding % was “+++ (+++ indicates binding activity greater than 50%)”. With `C=CC(=O)N1CCC(c2cc3ccc(-c4c(C)ccc5[nH]ncc45)cc3o2)C1` (stereo not shown) [Compound 21, 1-(3-(6-(5-methyl-1H-indazol-4-yl)benzofuran-2-yl)pyrrolidin-1-yl)prop-2-en-1-one] the Binding % was “+ (+ indicates binding activity up to 10%)”. With `CC#CC(=O)N1CC(c2cc3ccc(-c4cc(O)cc5ccccc45)cc3o2)C1` [Compound 22, 1-(3-(6-(3-hydroxynaphthalen-1-yl)benzofuran-2-yl)azetidin-1-yl)but-2-yn-1-one] the Binding % was “+ (+ indicates binding activity up to 10%)”. In the case of `C=CC(=O)N1CC(n2cnc3cc(-c4c(O)cccc4F)c(Cl)cc32)C1` [Compound 23, 1-(3-(6-chloro-5-(2-fluoro-6-hydroxyphenyl)-1H-benzo[d]imidazol-1-yl)azetidin-1-yl)prop-2-en-1-one], the Binding % was “+ (+ indicates binding activity up to 10%)”. With `C=CC(=O)N1CC(n2c(C#N)nc3cc(-c4c(O)cccc4F)ccc32)C1` [Compound 25, 1-(1-acryloylazetidin-3-yl)-5-(2-fluoro-6-hydroxyphenyl)-1H-benzo[d]imidazole-2-carbonitrile] the Binding % was “+ (+ indicates binding activity up to 10%)”. For `C=CC(=O)N1CC(n2ccc3cc(-c4cc(O)cc5ccccc45)ccc32)C1` [Compound 26, 1-(3-(5-(3-hydroxynaphthalen-1-yl)-1H-indol-1-yl)azetidin-1-yl)prop-2-en-1-one], the Binding % was “+++ (+++ indicates binding activity greater than 50%)”. In the case of `C=CC(=O)N1CC(c2c[nH]c3cc(-c4cc(O)cc5ccccc45)ccc23)C1` [Compound 27, 1-(3-(6-(3-hydroxynaphthalen-1-yl)-1H-indol-3-yl)azetidin-1-yl)prop-2-en-1-one], the Binding % was “+++ (+++ indicates binding activity greater than 50%)”. In the case of `C=CC(=O)N1CC(n2cnc3cc(-c4c(O)cccc4F)ccc32)C1` [Compound 59, 1-(3-(5-(2-fluoro-6-hydroxyphenyl)-1H-benzo[d]imidazol-1-yl)azetidin-1-yl)prop-2-en-1-one], the Binding % was “+ (+ indicates binding activity up to 10%)”. For `C=CC(=O)N1CC(c2cn3c(NC(C)=O)c(-c4c(C)ccc5[nH]ncc45)ccc3n2)C1` [Compound 60, N-(2-(1-acryloylazetidin-3-yl)-6-(5-methyl-1H-indazol-4-yl)imidazo[1,2-a]pyridin-5-yl)acetamide], the Binding % was “+ (+ indicates binding activity up to 10%)”. For `C=CC(=O)N1CC(c2cn3c(NC(C)=O)c(-c4cc(O)cc5ccccc45)ccc3n2)C1` [Compound 61, N-(2-(1-acryloylazetidin-3-yl)-6-(3-hydroxynaphthalen-1-yl)imidazo[1,2-a]pyridin-5-yl)acetamide], the Binding % was “+ (+ indicates binding activity up to 10%)”. For `C=CC(=O)N1CC(c2nc3c(-c4c(C)ccc5[nH]ncc45)cncc3[nH]2)C1` [Compound 63, 1-(3-(7-(5-methyl-1H-indazol-4-yl)-3H-imidazo[4,5-c]pyridin-2-yl)azetidin-1-yl)prop-2-en-1-one], the Binding % was “+ (+ indicates binding activity up to 10%)”. In the case of `C=CC(=O)N1CC(n2ccc3cc(-c4c(C)ccc5[nH]ncc45)ccc32)C1` [Compound 65, 1-(3-(5-(5-methyl-1H-indazol-4-yl)-1H-indol-1-yl)azetidin-1-yl)prop-2-en-1-one], the Binding % was “++ (++ indicates binding activity from 10 to 50%)”. With `C=CC(=O)N1CC(c2nc3c(-c4cc(O)cc5ccccc45)cncc3[nH]2)C1` [Compound 66, 1-(3-(7-(3-hydroxynaphthalen-1-yl)-3H-imidazo[4,5-c]pyridin-2-yl)azetidin-1-yl)prop-2-en-1-one] the Binding % was “+ (+ indicates binding activity up to 10%)”. In the case of `C=CC(=O)N1CC(n2cc(C#N)c3cc(-c4cc(O)cc5ccccc45)ccc32)C1` [Compound 67, 1-(1-acryloylazetidin-3-yl)-5-(3-hydroxynaphthalen-1-yl)-1H-indole-3-carbonitrile], the Binding % was “+++ (+++ indicates binding activity greater than 50%)”. `C=CC(=O)N1CC(n2cc(C#N)c3cc(-c4c(C)ccc5[nH]ncc45)ccc32)C1` [Compound 68, 1-(1-acryloylazetidin-3-yl)-5-(5-methyl-1H-indazol-4-yl)-1H-indole-3-carbonitrile] was tested, and the Binding % was “++ (++ indicates binding activity from 10 to 50%)”.
